Assay results reported in PubChem BioAssay AID1347073 (National Center for Advancing Translational Sciences (NCATS), 2019).
About 200 (0.44%) of roughly 45,000 compounds were called active. About 7% were inconclusive and are not listed. Calls come from the whole dose curve; as a rule, active = well fitted activation curve with a large enough effect; inconclusive = small, poorly fitted or top-dose-only effect; inactive = no such curve, though single readings can be large or run the other way. Some of the results follow.

Test: qHTS of TDP-43 Inhibitors: NCGC Sytravon Library Screen; note: 0% is about no effect; nearly all actives have a fitted effect of over 55% in size
Details: yeast TDP-43 toxicity rescue, BacTiter-Glo growth, 24 h; series mostly up to 46.1 µM; growth rescue (activation): at the top concentration
Summary of the method: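 TDP-43-expressing yeast, pregrown in raffinose, seeded at OD600 0.02 in galactose medium with compound for 24 hr at 30 deg C. Growth read by BacTiter-Glo luminescence, so rescue of toxicity appears as activation.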
With `COc1cccc(CN(C(=O)CN2C(=O)c3ccccc3S2(=O)=O)C(C(=O)NCC2CCCO2)c2ccco2)c1` (configuration not stated) the “growth rescue (activation)” value was inactive: 11.9%. With `CC(=O)Nc1cc(-c2ccccc2CN(C)C)cn2c(-c3ccc(F)c(Cl)c3)cnc12` the “growth rescue (activation)” value was inactive: -2.62%. For `Cc1ccc(CNC(=O)c2ccccc2N(C)S(C)(=O)=O)cc1`, the “growth rescue (activation)” value was inactive: -9.08%. In the case of `COc1ccc(CC(=O)OCC(=O)NCc2ccc(F)cc2)cc1`, the “growth rescue (activation)” value is reported as inactive: -4.17%. In the case of `COc1ccccc1/C=C/C=N/NC(=O)c1cccs1`, the “growth rescue (activation)” value is reported as inactive: 8.6%. For `O=C(Nc1cccc(OC(F)(F)F)c1)C1Cc2c(-c3ccco3)ccnc2O1` (configuration not stated), the “growth rescue (activation)” value was inactive: 15.7%. In the case of `COc1ccc(S(=O)(=O)Nc2ccccc2OC)cc1NC(=O)Cc1cccs1`, the “growth rescue (activation)” value is reported as inactive: 9.66%. In the case of `O=S(=O)(c1ccc(S(=O)(=O)N2CCCC2)cc1)N1CCCCC1`, the “growth rescue (activation)” value is reported as inactive: 1.78%. For `COc1cccc(NC(=O)C2(C)CCN2Cc2ccc(OC(C)C)cc2)c1` (configuration not stated), the “growth rescue (activation)” value was inactive: 8.25%. In the case of `Oc1[nH]c2ccccc2c1N=Nc1c(F)c(F)c(C(F)(F)F)c(F)c1F`, the “growth rescue (activation)” value is reported as inactive: 11.8%. In the case of `CCN1/C(=C/C(C)=C/c2sc3ccccc3[n+]2CC)Sc2ccccc21`, the “growth rescue (activation)” value is reported as inactive: -95.6%. For `O=C(CSc1nnc(-c2ccncc2)o1)c1ccc2c(c1)OCCO2`, the “growth rescue (activation)” value was inactive: -2.69%. In the case of `Cc1ccc(C(=O)Nc2ccc(C(=O)N/N=C/c3cccnc3)cc2)cc1`, the “growth rescue (activation)” value is reported as inactive: -2.2%. In the case of `Cc1ccc(N=Nc2c(O)[nH]c(=O)[nH]c2=O)cc1S(=O)(=O)Nc1ccc(Br)cc1`, the “growth rescue (activation)” value is reported as inactive: -5.58%. For `CC(=O)N1CCN(c2ccc(NC(=O)c3cccc(Cl)c3Cl)cc2)CC1`, the “growth rescue (activation)” value was inactive: -23.3%. With `COc1cccc(/C=C/C(=O)OCC(=O)N2c3ccccc3CC2C)c1OC` (configuration not stated) the “growth rescue (activation)” value was inactive: 17.1%. With `Cc1cccc(NS(=O)(=O)c2ccc(NC(=O)N3CCCCC3)cc2)c1` the “growth rescue (activation)” value was inactive: -0.296%. With `CCCOc1ccc(CNC(=S)NCc2ccc(OC(C)C)cc2)cc1` the “growth rescue (activation)” value was inactive: 6.13%. For `Cc1ccc(S(=O)(=O)NC(C(=O)N2CCOCCOCCOCCOCC2)C(C)C)cc1` (configuration not stated), the “growth rescue (activation)” value was inactive: 17%. With `COc1ccccc1/C=N/NC(=O)c1ccc(Br)cc1` the “growth rescue (activation)” value was inactive: -0.934%. In the case of `Nc1c(C(=O)Nc2ccc(OC(F)(F)F)cc2)sc2nc(-c3ccncc3)ccc12`, the “growth rescue (activation)” value is reported as inactive: 15.9%. In the case of `O=C(COC(=O)c1ccco1)NCc1ccc(F)cc1`, the “growth rescue (activation)” value is reported as inactive: -0.365%. With `CC(C)(C)C(=O)NC(=S)Nc1cccc(C(=O)O)c1` the “growth rescue (activation)” value was inactive: 2.57%. For `N#Cc1ccc(/C=N/NC(=O)c2cc(-c3cccs3)nc3ccccc23)cc1`, the “growth rescue (activation)” value was inactive: 0.849%. In the case of `COC(=O)c1ccc(C(=O)OC)c(NC(=O)CN(C)Cc2ccc(Cl)c(Cl)c2)c1`, the “growth rescue (activation)” value is reported as inactive: 25.2%. For `CCOC(=O)N1CCN(C(=O)c2cc3n(n2)C(C(F)(F)F)CC(c2ccc4c(c2)OCO4)N3)CC1` (configuration not stated), the “growth rescue (activation)” value was inactive: 17.1%. In the case of `CCOC(=O)c1ccc(NC(=O)CSc2nc3sc(C(=O)O)c(C)c3c(=O)[nH]2)cc1`, the “growth rescue (activation)” value is reported as inactive: 7.39%. For `CN(Cc1cn(Cc2ccccc2)nc1-c1ccc2c(c1)OCO2)Cc1nccn1C`, the “growth rescue (activation)” value was inactive: 13.3%. In the case of `Cn1c(=O)n(C)c2cc(C(=O)O)ccc21`, the “growth rescue (activation)” value is reported as inactive: 32.3%. In the case of `COC(=O)c1ccc(COC(=O)CNC(=O)C2CCCCC2)cc1`, the “growth rescue (activation)” value is reported as inactive: -0.868%. For `Cc1cc(C)cc(NC(=O)c2cc3c(=O)n4ccccc4nc3s2)c1`, the “growth rescue (activation)” value was inactive: 12.3%. For `COc1cc(NC(=O)c2ccccn2)cc(OC)c1OC`, the “growth rescue (activation)” value was inactive: 6.96%. For `CC(=O)c1cccc(S(=O)(=O)N2CCN(c3nc4cc(C)cc(C)c4cc3C#N)CC2)c1`, the “growth rescue (activation)” value was inactive: 17.2%. For `COc1ccc(-c2csc(NC(=O)CSc3nc(C)nc4sc(C(=O)O)c(C)c34)n2)cc1`, the “growth rescue (activation)” value was inactive: 3.48%. In the case of `Fc1cnc(N/N=C/c2ccc(-c3ccc(Br)cc3)o2)nc1N1CCOCC1`, the “growth rescue (activation)” value is reported as inactive: 8.76%. In the case of `COc1ccc(NC(=O)Cc2coc3cc(C)ccc23)cn1`, the “growth rescue (activation)” value is reported as inactive: 30.3%. For `COc1cccc(CC(=O)OCC(=O)NCc2ccc3c(c2)OCO3)c1`, the “growth rescue (activation)” value was inactive: -6.63%. With `CCOC(=O)N1CCN(Cc2nc3cc([N+](=O)[O-])ccc3n2C)CC1` the “growth rescue (activation)” value was inactive: 4.89%. In the case of `O=C(CSc1nn(-c2ccc(F)cc2)c(=S)s1)NCC1CCCO1` (configuration not stated), the “growth rescue (activation)” value is reported as inactive: -5.95%. For `CCS(=O)(=O)N1Cc2ccccc2CC1C(=O)N(C)Cc1ccc(OC)cc1OC` (configuration not stated), the “growth rescue (activation)” value was inactive: 0.402%. For `CCN1C(=O)/C(=C/c2nc3ccccc3c(=O)[nH]2)c2ccccc21`, the “growth rescue (activation)” value was inactive: -8.2%. For `C/C(=N\NC(=O)c1c(C)nc2ccccn12)c1ccccc1F`, the “growth rescue (activation)” value was inactive: -10.7%. In the case of `CCCCN(C(=O)CCC(=O)Nc1cc(C)on1)C(C(=O)NC1CCCC1)c1cccc(OC)c1` (configuration not stated), the “growth rescue (activation)” value is reported as inactive: 0.546%. For `O=C(NC1CC1)C(Cl)c1ccccc1` (configuration not stated), the “growth rescue (activation)” value was inactive: -0.0995%. With `O=S(=O)(NN=C1CCCCC1)c1ccccc1` the “growth rescue (activation)” value was inactive: 2.6%. For `Cc1ccc(C)c(CN2C(=O)c3ccccc3S(=O)(=O)c3ccc(C(=O)NCCCN4CCCC(C)C4)cc32)c1` (configuration not stated), the “growth rescue (activation)” value was inactive: 18%. In the case of `CCN(CC)S(=O)(=O)c1ccc2[nH]c(=O)cc(C(=O)NCc3ccccc3)c2c1`, the “growth rescue (activation)” value is reported as inactive: 8.05%. With `O=C(O)c1ccccc1NCc1ccsc1` the “growth rescue (activation)” value was inactive: 15.6%. With `CCCOc1ccc(-c2nc(C#N)c(N3CCN(CC)CC3)o2)cc1` the “growth rescue (activation)” value was inactive: 12.4%. In the case of `CC(C)OP(=O)(Nc1cccc2ccccc12)OC(C)C`, the “growth rescue (activation)” value is reported as inactive: 4.05%. For `O=C(COC(=O)/C=C/c1ccccc1[N+](=O)[O-])NCc1ccco1`, the “growth rescue (activation)” value was inactive: -4.11%. In the case of `CCOc1ccccc1-c1nc(CN(Cc2cnn(C)c2)C(C)C)c(C)o1`, the “growth rescue (activation)” value is reported as inactive: 14.2%.
